{"source": "paper PMC4336329", "about": "(PLoS ONE, 2015)", "note": "Among all 310,000 compounds or so, about 14,000 (4.5%) showed an effect of 50% or more. Effects have a minus sign here. The list shows a part of the results.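 Also: peak tail current of the secondary pulse compared with the same well before compound.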"}
{"target": "human ether-à-go-go-related gene (hERG) potassium channel (human, UniProt Q12809)", "sequence (Q12809 whole entry, looked up)": "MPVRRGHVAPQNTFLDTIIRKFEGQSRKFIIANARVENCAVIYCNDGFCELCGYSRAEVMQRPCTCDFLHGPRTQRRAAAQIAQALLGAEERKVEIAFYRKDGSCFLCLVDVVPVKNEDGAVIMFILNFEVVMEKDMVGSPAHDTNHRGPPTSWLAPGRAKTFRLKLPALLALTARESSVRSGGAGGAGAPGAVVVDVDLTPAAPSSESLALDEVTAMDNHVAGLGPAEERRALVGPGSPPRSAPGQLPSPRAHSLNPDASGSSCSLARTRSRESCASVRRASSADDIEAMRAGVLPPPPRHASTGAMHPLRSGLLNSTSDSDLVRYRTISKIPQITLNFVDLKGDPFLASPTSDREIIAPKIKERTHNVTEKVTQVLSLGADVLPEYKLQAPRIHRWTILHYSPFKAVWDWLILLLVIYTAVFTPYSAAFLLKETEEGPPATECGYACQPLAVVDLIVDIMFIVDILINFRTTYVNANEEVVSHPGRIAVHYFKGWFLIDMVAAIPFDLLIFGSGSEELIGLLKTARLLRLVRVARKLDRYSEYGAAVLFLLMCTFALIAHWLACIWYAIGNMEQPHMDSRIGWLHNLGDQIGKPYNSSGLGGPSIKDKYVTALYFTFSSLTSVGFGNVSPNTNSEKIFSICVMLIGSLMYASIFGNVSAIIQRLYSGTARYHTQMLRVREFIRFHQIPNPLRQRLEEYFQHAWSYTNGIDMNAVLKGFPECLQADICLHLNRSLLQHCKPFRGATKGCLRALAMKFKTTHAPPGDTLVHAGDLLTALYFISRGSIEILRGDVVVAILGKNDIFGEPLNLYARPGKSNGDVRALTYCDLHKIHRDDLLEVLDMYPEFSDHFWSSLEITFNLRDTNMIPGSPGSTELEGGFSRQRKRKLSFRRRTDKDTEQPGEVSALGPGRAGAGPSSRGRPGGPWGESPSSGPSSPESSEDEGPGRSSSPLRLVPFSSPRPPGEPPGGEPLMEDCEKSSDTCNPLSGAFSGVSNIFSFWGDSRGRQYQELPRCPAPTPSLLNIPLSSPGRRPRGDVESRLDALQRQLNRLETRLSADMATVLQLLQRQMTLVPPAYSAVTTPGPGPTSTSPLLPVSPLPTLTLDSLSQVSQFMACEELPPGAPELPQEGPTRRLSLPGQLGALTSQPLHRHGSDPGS", "experiment": "primary screen, population patch clamp on CHO cells stably expressing hERG", "units": {"hERG current change (%, negative = inhibition) at 10uM": "%"}}
{"smiles": "Cc1csc(NC(=O)CSc2nnc(-c3ccccc3)o2)n1", "hERG current change (%, negative = inhibition) at 10uM": 1.77}
{"smiles": "O=C(O)c1nccnc1C(=O)Nc1ccccc1N1CCOCC1", "hERG current change (%, negative = inhibition) at 10uM": 0.094}
{"smiles": "O=C(NCCc1ccc(C(F)(F)F)cc1)C1CC(=O)N(c2ccc3c(c2)OCCO3)C1", "note": "(centres unmarked)", "hERG current change (%, negative = inhibition) at 10uM": -2.97}
{"smiles": "NC(=O)C(c1ccccc1)C1CCCC1", "note": "(centres unmarked)", "hERG current change (%, negative = inhibition) at 10uM": 20.4}
{"smiles": "Cc1c(C(=O)N2CCC(N3CCSCC3)CC2)oc2c(F)cccc12", "hERG current change (%, negative = inhibition) at 10uM": -34.9}
{"smiles": "CCO/N=C(\\C)c1c(O)cc(C(C)C)n(-c2ccccc2)c1=O", "hERG current change (%, negative = inhibition) at 10uM": 3.39}
{"smiles": "COc1ccc(CN2CCNC(=O)C2CC(=O)N2CCCCO2)cc1OC", "note": "(centres unmarked)", "hERG current change (%, negative = inhibition) at 10uM": 20.4}
{"smiles": "COc1ccc(OC)c(NC(=S)N2CCc3ccccc3C2)c1", "hERG current change (%, negative = inhibition) at 10uM": -3.36}
{"smiles": "O=C(NN1C(=O)/C(=C/c2ccc(O)c(O)c2)SC1=S)c1ccccc1", "hERG current change (%, negative = inhibition) at 10uM": -9.26}
{"smiles": "Nc1nc(NCc2ccco2)nc(N2CCCCCC2)c1[N+](=O)[O-]", "hERG current change (%, negative = inhibition) at 10uM": -23.8}
{"smiles": "Cc1cccc(N2CCN(S(=O)(=O)c3ccc4c(c3)CCCN4C(=O)C3CCC3)CC2)c1C", "hERG current change (%, negative = inhibition) at 10uM": -12}
{"smiles": "CN(CC(=O)NC1CC1)S(=O)(=O)c1ccc(F)cc1", "hERG current change (%, negative = inhibition) at 10uM": 16.6}
{"smiles": "CCN(Cc1ccccc1)C(=O)c1cccc(OC2CCN(C(=O)C3CC3)CC2)c1", "hERG current change (%, negative = inhibition) at 10uM": -46}
{"smiles": "CN(C)S(=O)(=O)c1ccc(C(=O)Nc2nnc(SCc3cccc(F)c3)s2)cc1", "hERG current change (%, negative = inhibition) at 10uM": 7.71}
{"smiles": "CC1(C)Cc2ccccc2C2CC(O)C(=O)N21", "note": "(centres unmarked)", "hERG current change (%, negative = inhibition) at 10uM": 9.13}
{"smiles": "COc1ccc(CCNC(=O)CSc2nc(C)cs2)cc1", "hERG current change (%, negative = inhibition) at 10uM": -1.06}
{"smiles": "Cn1nc(-c2ccccc2)c(CO)c1Oc1cccc(C(F)(F)F)c1", "hERG current change (%, negative = inhibition) at 10uM": 12.3}
{"smiles": "COC(=O)c1ccccc1NC(=O)N[C@@H](C)C(=O)OC", "hERG current change (%, negative = inhibition) at 10uM": -2.03}
{"smiles": "O=C(Nc1cccc(NC(=O)c2ccccc2Cl)c1)c1ccco1", "hERG current change (%, negative = inhibition) at 10uM": 1.84}
{"smiles": "COc1ccccc1CCNC(=O)c1nc(-c2cccs2)no1", "hERG current change (%, negative = inhibition) at 10uM": -12.3}
{"smiles": "Cc1cnc(Nc2nc3ccccc3o2)nc1C(=O)Nc1cccc(C(F)(F)F)c1", "hERG current change (%, negative = inhibition) at 10uM": -13.8}
{"smiles": "CCN(CC)C(=O)c1sc2nc(N3CCOCC3)c3c(c2c1N)CCCC3", "hERG current change (%, negative = inhibition) at 10uM": 3.98}
{"smiles": "Cc1ccc(S(=O)(=O)N2[C@@H](c3ccccc3)C(C(=O)O)=CC[C@H]2c2cccc(C)c2)cc1", "hERG current change (%, negative = inhibition) at 10uM": 14.1}
{"smiles": "COc1ccc(Nc2cc(Cl)ccc2C(=O)O)cn1", "hERG current change (%, negative = inhibition) at 10uM": 12.6}
{"smiles": "CN(C)CC1CSCCC1(O)c1ccc(C(F)(F)F)cc1.Cl", "note": "(centres unmarked)", "hERG current change (%, negative = inhibition) at 10uM": 8.26}
{"smiles": "CC(C)(C)n1nnnc1C(c1cc2cc3c(cc2[nH]c1=O)OCCO3)N1CCSCC1", "note": "(centres unmarked)", "hERG current change (%, negative = inhibition) at 10uM": -10.6}
{"smiles": "COC(=O)c1ccc(CNC(=O)/C=C/c2cc([N+](=O)[O-])ccc2OC(F)F)cc1", "hERG current change (%, negative = inhibition) at 10uM": 6.89}
{"smiles": "N#CCCCCN1CCCC1", "hERG current change (%, negative = inhibition) at 10uM": 4.2}
{"smiles": "CC(=O)Nc1ccc(Sc2ccccc2C(=O)O)c(C(=O)O)c1", "hERG current change (%, negative = inhibition) at 10uM": 19.4}
{"smiles": "Cc1ccc(NC2CCCN(C(=O)c3ccccc3-c3ncc[nH]3)C2)cc1C", "note": "(centres unmarked)", "hERG current change (%, negative = inhibition) at 10uM": 7.65}
{"smiles": "CC(=O)CC(=O)Nc1ccn(-c2ccccc2)n1", "hERG current change (%, negative = inhibition) at 10uM": -0.191}
{"smiles": "COc1cccc(-c2c(C(=O)N/N=C(\\C)c3ccncc3)nnn2-c2nonc2N)c1", "hERG current change (%, negative = inhibition) at 10uM": -22}
{"smiles": "O=c1cc(CN2CCOCC2)c2cc(Cl)c(O)cc2o1", "hERG current change (%, negative = inhibition) at 10uM": -15.7}
{"smiles": "Cc1ccc(-c2nc3c4ccccc4ccn3c2CN2CCCCC2)cc1.Cl", "hERG current change (%, negative = inhibition) at 10uM": -3.77}
{"smiles": "CC(=O)Nc1cc(-c2ccccc2)nn1Cc1ccc(Cl)cc1", "hERG current change (%, negative = inhibition) at 10uM": 14.9}
{"smiles": "Cc1onc(-c2ccccc2Cl)c1C(=O)OCC(=O)c1c(N)n(C)c(=O)n(C)c1=O", "hERG current change (%, negative = inhibition) at 10uM": -9.6}
{"smiles": "COc1cccc(Cn2c(=O)sc3ccccc3c2=O)c1", "hERG current change (%, negative = inhibition) at 10uM": -9.92}
{"smiles": "Cc1cccc(NC(=O)CCN2CCC(C)CC2)c1", "hERG current change (%, negative = inhibition) at 10uM": -8.23}
{"smiles": "CC(C)c1ccc(/C=C2\\SC(=S)N(CCC(=O)NCCCn3ccnc3)C2=O)cc1", "hERG current change (%, negative = inhibition) at 10uM": -17.3}
{"smiles": "COc1ccc([C@@H]2[C@@H]3C(=O)N(C(C)(C)C)C(=O)[C@@H]3[C@]3(Cc4ccc(Cl)cc4)C(=O)N(c4ccc(C)cc4)C(=O)N23)cc1", "hERG current change (%, negative = inhibition) at 10uM": 9.38}
{"smiles": "COc1cc(NC(=O)/C=C/c2ccccc2)c(C(=O)O)cc1OC", "hERG current change (%, negative = inhibition) at 10uM": 6.63}
{"smiles": "CCCCCC1CC(CC(=O)Nc2ccc([N+](=O)[O-])cc2)OC1=O", "note": "(centres unmarked)", "hERG current change (%, negative = inhibition) at 10uM": -53.1}
{"smiles": "COCc1nc2oc3ccc(C)cc3c(=O)c2cc1C(=O)OC", "hERG current change (%, negative = inhibition) at 10uM": 14.7}
{"smiles": "COc1ccc(-n2c(CN3CCN(C)CC3)nc3ccc([N+](=O)[O-])cc3c2=O)c(OC)c1", "hERG current change (%, negative = inhibition) at 10uM": -38.4}
{"smiles": "COc1ccc(/C=C2\\C(=O)N(c3c(Cl)cc(Cl)cc3Cl)N=C2NC(=O)c2cccc([N+](=O)[O-])c2)cc1", "hERG current change (%, negative = inhibition) at 10uM": 6.99}
{"smiles": "CCC(C)c1ccccc1NC(=O)c1cc2cccc([N+](=O)[O-])c2[nH]1", "note": "(centres unmarked)", "hERG current change (%, negative = inhibition) at 10uM": -5.8}
{"smiles": "Cc1cccc2cc(/C=C3\\N=C(c4ccccc4)OC3=O)c(N3CCOCC3)nc12", "hERG current change (%, negative = inhibition) at 10uM": -5.69}
{"smiles": "Cc1ccc(NC2CCCN(C(=O)c3ccc4[nH]ccc4c3)C2)cc1C", "note": "(centres unmarked)", "hERG current change (%, negative = inhibition) at 10uM": 6.01}
{"smiles": "COCC(C)NC(=O)c1ccc(CN2CCc3ccccc3C2)cc1", "note": "(centres unmarked)", "hERG current change (%, negative = inhibition) at 10uM": 9.43}
{"smiles": "CCC(=O)N(Cc1cc2ccc(C)cc2n2nnnc12)C1CCCCC1", "hERG current change (%, negative = inhibition) at 10uM": -32.3}
{"smiles": "COc1ccccc1-c1noc(-c2ccccc2C(=O)Nc2ccccc2)n1", "hERG current change (%, negative = inhibition) at 10uM": 13.9}
{"smiles": "O=C(NCCN1CCOCC1)c1noc2c1CCc1ccccc1-2", "hERG current change (%, negative = inhibition) at 10uM": -16.8}
{"smiles": "CCOc1c(Cl)cc(C(=O)Nc2cccc(C(=O)O)c2)cc1Cl", "hERG current change (%, negative = inhibition) at 10uM": 24.6}
{"smiles": "CSc1cccc(NC(=O)COc2ccccc2C)c1", "hERG current change (%, negative = inhibition) at 10uM": 12.4}
{"smiles": "Cc1cc(OCC(=O)C(C)(C)C)c2c(C)c(C)c(=O)oc2c1", "hERG current change (%, negative = inhibition) at 10uM": 14.8}
{"smiles": "CCN1CC(CN(C)Cc2nc(-c3ccc(C(F)(F)F)cc3)oc2C)CC1=O", "note": "(centres unmarked)", "hERG current change (%, negative = inhibition) at 10uM": -51.5}
